Experimental data published in PubChem BioAssay AID463173 (ICCB-Longwood Screening Facility, Harvard Medical School, 2010).
Among all 52,000 compounds or so, about 4,300 (8.3%) were called active. No stated cut-off is given here; in the data, active means survival mostly below about 52% (no sharp cut-off); inactive means mostly above about 56%. The list shows a part of the results.

Test system: DeltatarO mutant
Experiment: growth inhibition of S. aureus wild type versus tarO mutant, primary screen, teichoic acid synthesis inhibitors, RN4220, OD600 (AID 463173)
Settings: OD600, 18 h, active compounds read low, screened at 18.75 µg/mL (by protocol)

Compound	survival
COc1ccc(C2CC(=O)Nc3c2c(=O)n(C)c2nc4ccccc4n32)cc1 (stereo unspecified)	inactive: 92%
COc1ccc(-c2noc(-c3ccc(C)cc3Cl)n2)cc1OC	inactive: 136%
CCOc1ccc(NC(=O)c2sc3ccccc3c2Cl)cc1	inactive: 68%
COc1ccc(C(=O)c2cn(Cc3cccc(C)c3)c3cc4c(cc3c2=O)OCO4)cc1	inactive: 86%
CCOC(=O)c1[nH]c(C)c(C(=O)NCc2cccc(OC)c2)c1C	inactive: 70%
CCc1ccccc1NC(=O)Cn1c(=O)n(CC(=O)NCCc2ccccc2)c(=O)c2ccccc21	inactive: 91%
COc1ccc(CC(=O)NCCc2csc(-c3ccc(C(F)(F)F)cc3)n2)cc1	active: -5%
COc1cc(Cl)c(C)cc1NC(=O)CSc1cc(-c2ccccc2)nc(C)n1	inactive: 53%
Cc1ccccc1C1=CCN(c2ncc(NC(=O)c3ccc(Cl)cc3)cc2C(=O)O)CC1	inactive: 95%
Cc1nc2nc(SCC(=O)NCCc3ccc(Cl)cc3)nn2c(C)c1Cc1ccccc1Cl	inactive: 99%
Cn1c(=O)[nH]c(=O)c2[nH]c(NCCO)nc21	inactive: 80%
Cc1nc2c(-c3ccccc3)c(C)nn2c(C)c1CCC(=O)Nc1ccccc1F	inactive: 66%
COc1ccccc1N1CCN(C(=O)CCn2nc(C)c(S(=O)(=O)N3CCCC3)c2C)CC1	inactive: 77%
Cc1ccc(NC(=O)CSc2nc3ccc(NC(=O)COc4ccc(C)cc4)cc3s2)cc1	inactive: 83%
O=C(Nc1nnc(C2CC(=O)N(c3ccc(Cl)cc3)C2)s1)c1ccco1 (stereo unspecified)	inactive: 84%
Cc1ccc(SCc2nc(-c3ccc(C(=O)Nc4cc(C)ccc4C)cc3)oc2C)cc1	inactive: 109%
O=C(Nc1ccc2[nH]c(=O)c(=O)[nH]c2c1)c1cccc(F)c1	inactive: 131%
COc1ccc2[nH]c(=O)c(CN(Cc3ccc(C)cc3)C(C)=O)cc2c1	inactive: 107%
CCc1cccc(NC(=O)CN(C)S(=O)(=O)c2ccc3c(c2)n(C)c(=O)c(=O)n3C)c1	inactive: 86%

Compound	survival
CCOc1cc(C(=O)Nc2ccc3nc(N4CCN(C)CC4)cc(C)c3c2)cc(OCC)c1OCC	inactive: 137%
CC(=O)c1ccc(NS(=O)(=O)c2ccc3[nH]c(=O)[nH]c3c2)cc1	inactive: 101%
COC(=O)c1ccc(C=Nc2ccc3oc(-c4ccc(N(C)C)cc4)nc3c2)cc1	inactive: 85%
COc1ccc(-n2c(SCC(=O)Nc3ccc4c(c3)OCO4)nc3c([nH]c4ccccc43)c2=O)cc1	inactive: 91%
Cc1nc(-c2ccccc2)sc1C(N)=O	inactive: 68%
Cc1cc(C)cc(NC(=O)C2CCN(c3nnc(-n4c(C)ccc4C)s3)CC2)c1	inactive: 92%
CCOc1ccc2nc(Cl)c(C3CC(c4ccccc4)=NN3C(=O)CCC(=O)O)cc2c1 (stereo unspecified)	inactive: 51%
CCOc1ccc(NC(=O)N2CCC(n3c(C)nc4cccnc43)CC2)cc1	inactive: 94%
CCOc1ccc(C(=O)NCC(c2ccc3c(c2)OCO3)N2CCN(C)CC2)cc1 (stereo unspecified)	inactive: 78%
CCc1cc(=O)oc2c(C)c(OCC(=O)Nc3ccc(S(=O)(=O)N(CC)CC)cc3)ccc12	inactive: 57%
CCOc1ccc(S(=O)(=O)N(CC(=O)Nc2ccc(OC)c(Cl)c2)c2ccccc2)cc1	inactive: 75%
CNC(=O)C1CCN(S(=O)(=O)c2ccccc2)CC1	inactive: 96%
Cc1ccc(-c2nnc(Nc3ccc(O)cc3)c3ccccc23)cc1S(=O)(=O)NC(C)(C)CO	inactive: 254%
Cc1nn2c(C)c(C(=O)NCc3cccc(Br)c3)cnc2c1-c1ccccc1	inactive: 66%
O=C(CN1C(=O)c2ccccc2Sc2ncccc21)Nc1cccc(C(F)(F)F)c1	inactive: 88%
COc1ccc(Cl)cc1NC(=O)c1noc2c1CCc1ccccc1-2	inactive: 71%
COc1cccc(CNC(=O)C2=C(C)C(=O)OC23CCCCCC3)c1	inactive: 87%
Cc1cccc(N2CCN(C(=O)CCNS(=O)(=O)c3ccc4c(c3)CCN4C(=O)C3CC3)CC2)c1C	inactive: 73%
COc1ccc2nc(NC(=O)c3nc(S(=O)(=O)Cc4ccc(C)cc4)ncc3Cl)sc2c1	inactive: 82%

Compound	survival
COc1ccc(Nc2cc(C)c3cc(NC(=O)COc4cccc(C)c4)ccc3n2)cc1	inactive: 102%
Cc1cc(C)c(Cn2cnc3nc4c(cc3c2=O)CCCC4)c(C)c1	inactive: 96%
COc1cc(-c2nc(-c3ccccc3)c(-c3ccc(Br)cc3)[nH]2)cc(OC)c1O	active: 0%
CCCCN(CC)C(=O)CSc1nc2ccccc2c(=O)n1Cc1ccco1	inactive: 82%
CC1CN(C(=O)N2CCC(C(=O)NCc3cccs3)CC2)c2ccccc2O1 (stereo unspecified)	inactive: 66%
CCC1CCCCN1CCCNC(=O)c1c(O)nc2cc(C)ccn2c1=O (stereo unspecified)	inactive: 80%
COC(=O)c1cc2sc(Cl)cc2n1Cc1nc(-c2ccccc2C)oc1C	inactive: 78%
COc1ccc(NC(=O)C2CCN(c3ccc(Sc4ccc(C)cc4)nn3)CC2)cc1	inactive: 74%
COc1cccc(CNC(=O)Cn2c(=O)nc(-c3ccccc3F)c3cc(Cl)ccc32)c1	inactive: 87%
CC1CCN(S(=O)(=O)c2ccc3c(c2)N(CC(=O)NC(C)(C)C)C(=O)CS3)CC1	inactive: 117%
COc1ccc(Nc2oc(/C=C/c3cc(OC)c(OC)c(OC)c3)nc2C#N)cc1	inactive: 50%
Cc1ccc(Cl)cc1N1CCN(C(=O)COc2cc(=O)n(C)c3ccccc23)CC1	inactive: 70%
O=C(NC1CCCCC1)c1ccco1	inactive: 89%
COc1ccc(Nc2nc3c(S(=O)(=O)c4ccc(C)cc4)nnn3c3ccsc23)cc1Cl	inactive: 44%
CC(=O)N1CCc2c(sc3c2c(=O)n(Cc2ccccc2)c(=O)n3Cc2ccccc2Cl)C1	inactive: 84%
COc1ccc(-c2nc3c4ccccc4n(CC(=O)N4CCN(c5ccccc5F)CC4)c(=O)n3n2)cc1	inactive: 74%
O=C(Cn1nnc2ccccc21)OCC(=O)c1ccc(Cl)cc1	inactive: 77%
CCc1ccc(NC(=O)CCCc2nnc3n(C(C)CC)c(=O)c4sccc4n23)cc1 (stereo unspecified)	inactive: 94%
